Data on 84 variants can be found in the RNAGym collection of RNA variant scans (doi:10.1093/nar/gkz1192).

The source gives no read counts; variants with many changes may rest on few reads.

B1: CPEB3 Ribozyme (parent)
chain: UAACAGGGGGCCACAGCAGAAGCGUUCACGUCGCAGCCCCUGUCAGAUUCUGGUGAAUCUGCGAAUUCUGCUGUAUAUCUC

In the data set the parent is B1. The data set is described as follows: self-cleavage, relative activity (ratio to wild type); higher = more cleavage; in vitro, sequencing. In outline: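 CPEB3 self-cleaving ribozyme mutant libraries were made by rounds of error-prone PCR, barcoded, and transcribed in vitro with T7 RNA polymerase for 5 hours at 37°C. Cleavage occurred during transcription and a 15 min DNase I step before EDTA stop. RNAs were reverse transcribed with template switching and Illumina-sequenced, with DNA sequencing mapping barcodes to variants. Relative activity is the variant's cleaved/total read fraction divided by wild type's (minimum 5 reads), averaged across three batches.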
For A35C A45G U78C, the self-cleavage came out at 0.19. Under C32A G46A U66C stands 0.08.

Consider U31C U54A A65G A77U, for which the self-cleavage was 0.47.

For U31G U58C U69C, the self-cleavage was determined as 0.12. Take G33A A35G A57G U80C: the self-cleavage worked out at 0.37.

On to U31C U48C U72A, for which the self-cleavage amounted to 0.46. With A35C A56G G61A, the self-cleavage is 0.4. Regarding G33A U58A U60C U72C, the self-cleavage amounted to 0.18. For G33C G36C A47C U48A U69A U72A, the self-cleavage amounted to 0.05. As to C32U U67C U69C, the self-cleavage came to 0.05. Turning to C32A C38A U54A U60C U69C U78C, the self-cleavage was 0.05. With C34A U51C G61C A77U, the self-cleavage was determined as 0.18. As to C34U U41A U48C C62U, the self-cleavage was found to be 0.15.

With C32A U51C A57G U66C U74C U78C, the self-cleavage amounted to 0.05. For the variant G33A A35U U66C, the self-cleavage was 0.25. Under C32U A35C U41A A45C stands 0.09; under C34G U51C U72C U80C, 0.09. Consider G33C G36A U51G G70A U72C, for which the self-cleavage turned out to be 0.06.

Consider C32G A45U U67A, for which the self-cleavage stood at 0.14.

Consider C34G U43G A57U, for which the self-cleavage amounted to 0.09. For the variant C34U A45C U67A, the self-cleavage turned out to be 0.22. As to U31G U49A U69C, the self-cleavage was 0.14. For the variant G33C G46U A65G, the self-cleavage came out at 0.12. As to U31C U54C U67A, the self-cleavage stood at 0.22. With C32A A35U U43C U69C U72A, the self-cleavage came to 0.06.

Turning to G33C U51C U54C, the self-cleavage is 0.13. As to U31C U60C U74C, the self-cleavage is 0.72.

As to A35C U41C U51A, the self-cleavage was found to be 1.02.

Take G33A G42A U74G: the self-cleavage worked out at 0.06. For C32A A57U U78A, the self-cleavage amounted to 0.1. Turning to U31C U54C U60A G73C, the self-cleavage worked out at 0.68. On to U31G A47G U48C, for which the self-cleavage is 0.42.

In the case of C32U U43A U51C A56U, the self-cleavage was determined as 0.1. Under G33A U54G G63U stands 0.23.

With U31C U48C U51A, the self-cleavage was found to be 0.21. On to G33A C37U A64G U66C C71G, for which the self-cleavage amounted to 0.14. Under G33A U43G U58A G61A stands 0.12; under U31G U43C U48A C50U U78A, 0.06.

Regarding U31C U43A A64G, the self-cleavage turned out to be 0.63.

On to C32A A65G U66C U78C, for which the self-cleavage came out at 0.13. In the case of C32A A47G U60C, the self-cleavage turned out to be 0.38.

For the variant G33A A35G U72C, the self-cleavage came out at 0.57. As to C34U A35G U80C, the self-cleavage turned out to be 0.46. Regarding G33U A35G A56G U60C U67C U80C, the self-cleavage worked out at 0.04. Turning to U31C U43A U51C U58C U78A, the self-cleavage came out at 0.24. Then G33U G63U U76G A77U, with 0.17; and G33A U67C U78C U80C, with 0.08; and G33C A35U C40A U43C A65G, with 0.12.

For C32G C37G U67C, the self-cleavage is 0.16. As for C32A U41C A56G A57U G70A U74C, the self-cleavage amounted to 0.1. Then C34G U43C U51C U60A U69C, with 0.16; and C32G U43C A57G, with 0.09; and C34A A45U U48C U67A G70A, with 0.17. Under U31G C32U U48C A56U U80C stands 0.08; under C32A U41C U51A G63A U74C, 0.12.

As for U31C U51C U67A, the self-cleavage was determined as 0.31. As for U31C U54C U76C, the self-cleavage worked out at 1.25. Consider U31C U43C A47U, for which the self-cleavage stood at 0.07. Consider G33U C40A G52C, for which the self-cleavage was determined as 0.1. In the case of C32U U41A U60C, the self-cleavage is 0.15.

G33A U43C G52C U69A: the self-cleavage was 0.07.

Turning to A35C G73C U76A, the self-cleavage stood at 1.23. In the case of A35C C38A U41C A65G U69A C71G, the self-cleavage is 0.07. With G33A A45G U49C, the self-cleavage was determined as 0.22. Regarding C34U C38U A45G U54C U69C, the self-cleavage is 0.14.

For the variant U31G A57G U78A, the self-cleavage came out at 0.45.

With A35C A45G G61C, the self-cleavage stood at 0.19. Take C34G U54C A56G A57C: the self-cleavage was determined as 0.05. With U31C U67A U69C, the self-cleavage was found to be 0.15. Take G33A A45G C50A U76C: the self-cleavage is 0.07. Regarding G33A A47G A64G, the self-cleavage is 0.16. Regarding C32U U49C U51A U54C, the self-cleavage is 0.13. G33C A56G U66C U80C: the self-cleavage was determined as 0.13.

For U31C U51A U60C, the self-cleavage turned out to be 0.13. For C32A A45U U54A, the self-cleavage worked out at 0.23. Consider C32A A45U U54C, for which the self-cleavage was found to be 0.07. A35C A45C U48C U76C: the self-cleavage turned out to be 0.19. Take C32U A47G U48C A64U: the self-cleavage is 0.11. As for C34U U54C A57G, the self-cleavage came out at 0.18. For G33A A64G U78C, the self-cleavage is 0.12. As to C34G U41C U49C U54C C62G A64U U78C, the self-cleavage was found to be 0.05. As for U31C U49G U78A, the self-cleavage was 0.29.

Turning to U31C U49C U69C U76A, the self-cleavage was 0.17. Under U31C U58A A65G U72A U80C stands 0.26.
